Measurements taken from PubChem BioAssay AID463173 (ICCB-Longwood Screening Facility, Harvard Medical School, 2010).
The campaign covered roughly 52,000 compounds. About 1,700 (3.3%) were called active. Rule as the data show it: active = survival mostly below about 52% (no sharp cut-off); inactive = mostly above about 56%. The list shows a part of the results.

System: Wild type
Test: growth inhibition of S. aureus wild type versus tarO mutant, primary screen, teichoic acid synthesis inhibitors, RN4220, OD600 (AID 463173)
Conditions: S. aureus RN4220 wild type/DeltatarO growth, OD600, 18 h, stronger effect = lower value, screened at 18.75 µg/mL (by protocol)

Row | Structure (SMILES) | survival
1 | COc1ccc(-c2nnc(SCC(=O)Nc3c(C)cccc3C)nc2-c2ccc(OC)cc2)cc1 | inactive: 105%
2 | CC(C)CNc1ncnc2onc(-c3ccc(Cl)cc3)c12 | inactive: 69%
3 | CCOC(=O)c1ccc(NC(=O)c2oc3c(c2C)-c2nn(Cc4ccccc4Cl)cc2CC3)cc1 | inactive: 87%
4 | O=C(CCN1C(=O)c2ccccc2Sc2ncccc21)Nc1ccc(F)cc1 | inactive: 88%
5 | CC(CCc1ccccc1)NC(=O)Cn1ncc2c3ccccc3n(Cc3ccccc3)c2c1=O (stereo unspecified) | inactive: 89%
6 | CCCC(=O)N1c2ccccc2-c2nnc(SC)nc2OC1c1sccc1C (stereo unspecified) | inactive: 83%
7 | CN(C(=O)c1ccccc1)c1nc(-c2ccccc2)cs1 | inactive: 111%
8 | COc1ccc(S(=O)(=O)N2CCC(n3c(C)nc4cccnc43)CC2)cc1Cl | inactive: 131%
9 | Cc1ccc(C)c(N2CCN(S(=O)(=O)c3cc(C(=O)Nc4ccccc4C(F)(F)F)ccc3F)CC2)c1 | inactive: 66%
10 | CC(Oc1ccccc1)C(=O)Nc1c(C(=O)Nc2cccc(F)c2)oc2ccccc12 (stereo unspecified) | inactive: 57%
11 | CN(C)c1ccc(CNC(=O)Cn2c(-c3cccs3)cc3cc(Cl)ccc32)cc1 | inactive: 72%
12 | CCc1ccc(S(=O)(=O)Nc2cc3c(cc2C)n(C)c(=O)c(=O)n3C)cc1 | inactive: 57%
13 | CCOC(=O)c1c(NC(=O)COc2ccc(Cl)cc2Cl)sc2c1CCCCC2 | inactive: 76%
14 | Nc1c(-c2nc(-c3ccccc3Cl)no2)nnn1-c1ccccc1C(F)(F)F | inactive: 110%
15 | CCC(C)[C@@H](C(=O)Nc1ccc(C)cc1)N1Cc2ccccc2C1=O (stereo partly specified) | inactive: 67%
16 | CC1=C(c2ccc(C)c(C)c2)S(=O)(=O)N=C1N1CCC(C(=O)NCc2ccc(N(C)C)cc2)CC1 | inactive: 57%
17 | CCN(CC)S(=O)(=O)c1ccc(NC(=O)c2c(C)oc3ncnc(N4CCCCC4)c23)cc1 | inactive: 72%
18 | C/C=C1\NC(=S)N(Cc2ccccc2)C1=O | inactive: 101%
19 | O=c1c2oc3ccccc3c2n(Cc2ccccc2F)c(=O)n1Cc1ccc2c(c1)OCO2 | inactive: 82%

Row | Structure (SMILES) | survival
20 | Cc1n[nH]c(=S)n1CC(=O)n1c2c(c3ccccc31)CCCC2 | inactive: 110%
21 | CCOC(=O)C1CCN(S(=O)(=O)c2ccccc2)CC1 | inactive: 111%
22 | CCCn1c(N2CCN(C(=O)Nc3ccc(OC)cc3)CC2)nc2ccccc21 | inactive: 94%
23 | Cc1ccc(-c2nnc(SCC(=O)NCc3ccccc3)o2)cc1 | inactive: 130%
24 | O=C(NCc1ccccc1)c1ccc(CS(=O)(=O)c2c(Cl)cccc2Cl)o1 | inactive: 71%
25 | COc1ccc(OC)c(CCNC(=O)CCCn2c(=O)c3cccn3c3cccnc32)c1 | inactive: 92%
26 | CCOc1ccc(CNS(=O)(=O)c2ccc3c(c2)CC(C)N3C(C)=O)cc1OC (stereo unspecified) | inactive: 70%
27 | COc1ccc(CNC(=O)c2cnn(-c3ccccc3)c2-n2cccc2)cc1OC | inactive: 126%
28 | COc1ccc(N2CCN(C(=O)CSc3nc(-c4ccccc4)no3)CC2)cc1 | inactive: 89%
29 | Cc1ccc(NC(=O)Cn2nc(C)c3nn(-c4ccc(Cl)cc4)c(C)c3c2=O)cc1F | inactive: 79%
30 | COc1ccc(-n2nc3c(N4CCC(C(=O)NC5CCCCC5)CC4)nnc(C)c3c2C)cc1 | inactive: 73%
31 | COc1ccc(-c2n[nH]c3c2C(c2ccccn2)N(C)C3=O)cc1 (stereo unspecified) | inactive: 83%
32 | O=C1C2C(C(=O)N1c1ccccc1)N1CCCN1C2c1ccccc1 (stereo unspecified) | inactive: 104%
33 | O=C(CSc1nc(=O)[nH]c2c1CCC2)Nc1cc(C(F)(F)F)ccc1Cl | inactive: 72%
34 | Cc1cccc(C(=O)Nc2ccc3nc(SCC(=O)N4CCCC4)sc3c2)c1 | inactive: 69%
35 | CCOC(=O)c1[nH]c(C)c(CCC(=O)N2CCN(c3cc(C)ccc3C)CC2)c1C | inactive: 124%
36 | Cc1ccc2oc(=O)c3cnn(CC(=O)N4CCN(c5cccc(Cl)c5)CC4)c3c2c1 | inactive: 89%
37 | Cc1ccc(NC(=O)c2nc(S(=O)(=O)Cc3ccc(F)cc3)ncc2Cl)cc1C | inactive: 104%
38 | CCOc1ccc(OCC)c(NC(=O)CN(C)S(=O)(=O)c2ccc3[nH]c(=O)oc3c2)c1 | inactive: 87%

Row | Structure (SMILES) | survival
39 | COc1cc(CNC(=O)c2ccc(NC(=O)N3CCCCc4ccccc43)cc2)cc(OC)c1OC | inactive: 71%
40 | Cc1cc(C(=O)NCCc2ccc(Cl)cc2)c2c(C)nn(-c3ccccc3)c2n1 | inactive: 90%
41 | Cc1ccc(OCC(=O)NCC(=O)OCc2cc(=O)n3nc(CC(C)C)sc3n2)cc1 | inactive: 143%
42 | CCc1ccccc1NC(=O)C1CCCN(S(=O)(=O)c2ccc3[nH]c(=O)ccc3c2)C1 (stereo unspecified) | inactive: 107%
43 | O=C(c1cccs1)N1CCCc2cc(NS(=O)(=O)c3cc(F)ccc3F)ccc21 | inactive: 89%
44 | O=C(NCCc1ccc(Cl)cc1)c1cnc2sc(N3CCCC3)nn2c1=O | inactive: 64%
45 | CC(=O)c1cccc(NC(=O)CCn2nc(C)c(S(=O)(=O)N3CCCCC3)c2C)c1 | inactive: 159%
46 | COc1ccc(CNC(=O)CN2C(=O)COc3ccccc32)c(OC)c1 | inactive: 72%
47 | Cc1ccc2nc(NC(=O)CSc3cc(C)[nH]c(=O)n3)sc2c1 | inactive: 85%
48 | Oc1ccccc1-c1nc2cnccn2c1Nc1ccc(Cl)cc1 | active: -16%
49 | O=C(N1CCC(n2cnc3cccnc32)CC1)N1c2ccccc2Sc2ccccc21 | inactive: 119%
50 | CC(=O)c1ccc(NC(=O)C2CCN(S(=O)(=O)c3c(C)noc3/C=C/c3ccc(C)cc3)CC2)cc1 | inactive: 66%
51 | CC(=O)N(C)c1nc(-c2ccccc2)cs1 | inactive: 103%
52 | CCOc1ccc(CNC(=O)CCCn2c(=O)c3cccn3c3cccnc32)cc1 | inactive: 117%
53 | CCOc1ccc(C(=O)N2CCc3cc(OC)c(OC)cc3C2COc2ccc3c(C)cc(=O)oc3c2)cc1OCC (stereo unspecified) | inactive: 69%
54 | O=C(CSc1nc2ccccc2n1CC(=O)N1CCCC1)Nc1ccccc1 | inactive: 109%
55 | CCCOc1ccc(OC(=O)c2ccc(-c3ccc(CCC)cn3)cc2)cc1 | inactive: 77%
56 | O=S(=O)(NCCc1csc(-c2cccc(F)c2)n1)c1cc(F)ccc1F | inactive: 83%
